Marks after values point to notes of the source that are not given here.
What was measured:
[1] = target: T1, human Claudin18.2 (Homo sapiens, UniProt P56856); test: FACS affinity of chimeric antibodies to Ba/F3-Claudin18.2 cells; assay type: binding; parameters: expressed in transfected cells; host or cells: Ba/F3 (BaF/3, DSMZ ACC300), hygromycin-selected monoclonal line
From the text: The amino acid sequence of the light chain variable region of 1E9.2, 2C6.9, 6B9.22, 9C8.1, 16A9.11, 19G10.14 or 19H11.6 was linked to the amino acid sequence of the light chain constant region κ (SEQ ID NO: 43) respectively; the amino acid sequence of the heavy chain variable region was linked to the amino acid sequence of IgG1 heavy chain constant region (SEQ ID NO: 42) respectively, to construct the chimeric antibody. Codon optimized cDNA was synthesized and cloned to pcDNA3.4 (synthesized by Nanjing Genscript Biotech Corporation). The pcDNA3.4 plasmids coding the light chain and heavy chain of each antibody were co-transfected to Expi293F cells (purchased from Thermo Fisher). The antibodies were purified from culture supernatant by protein A (MabSelect SuRe, GE). And the purified chimeric antibodies were named 1E9.2-hz00, 2C6.9-hz00, 6B9.22-hz00, 9C8.1-hz00, 16A9.11-hz00, 19G10.14-hz00 and 19H11.6-hz00.
The affinity of the anti-Claudin18.2 chimeric antibodies to Ba/F3-Claudin18.2 cells were determined. Specifically, Ba/F3-Claudin18.2 cells (60000 in 10 ul buffer) were incubated with serially diluted anti-human Claudin18.2 chimeric antibodies or the control antibody IMAB362 on ice for 30 min, followed by washing with FACS buffer (PBS+2% FBS) twice and incubating with fluorescent goat-anti-human secondary antibody (Thermo Fisher Sci., Cat: A-21445) on ice for another 30 min. The cells were then analyzed by FACS.

[2] = system: Ba/F3-Claudin 18.2 cells; test: ADCC activity on Ba/F3-Claudin 18.2 cells (NK-92MI_mCD16, CytoTox-Glo); assay type: cell-based; conditions: Ba/F3-Claudin 18.2 target cells, NK-92MI_mCD16 effector cells, 6h
Experimental: In order to evaluate the ADCC activity, ten thousand Ba/F3-Claudin18.2 cells were cultured in 40 μl NK-92 media. Antibodies were serially diluted in 10 μl PBS. Fifty thousand NK-92MI_mCD16 cells in 50 μl NK-92 media were added and the reactions were incubated at 37° C. for 6h. 33.3 μl CytoTox-Glo (Promega, G9290) was added to each reaction […].

[3] = target: T1, human Claudin18.2; test: Affinity of chimeric and humanized antibodies to Ba/F3-Claudin 18.2 cells (IntelliCyt); assay type: binding; parameters: expressed in transfected cells; host or cells: Ba/F3 (BaF/3, DSMZ ACC300), hygromycin-selected monoclonal line
From the text: In order to evaluate the anti-Claudin18.2 humanized antibodies, codon optimized cDNAs of the heavy chains and the light chains of the candidate humanized antibodies from Example 6 were synthesized and ligated into pcDNA3.4 (by Nanjing Genscript Biotech Corporation). Expi293F cells (purchased from Thermo Incorporation) were co-transfected with pcDNA3.4 coding the heavy chain and light chain of each antibody. The antibodies were purified from the supernatant using protein A (MabSelect SuRe, GE). The affinity of the humanized antibodies to Claudin18.2 was determined using Ba/F3-Claudin18.2 cells which over-expressed human Claudin18.2. Ba/F3-Claudin18.2 cells (60000 in 10 ul buffer) were incubated with purified humanized antibodies on ice for 30 min, followed by washing with buffer (PBS+2% FBS) twice and addition of Alexa647-labeled goat-anti-human IgG Fc antibody (1:500 dilution). The cells were incubated on ice for another 30 min and analyzed by IntelliCyt.

Row | Max MFI [1] | Max MFI [3] | Molecule | ADCC EC50 [2] | Max killing rate [2]
1 | 12.97 ×10^6 |  | 19H11.6-hz00: chimeric antibody: 19H11.6 variable regions with human IgG1 and κ constant regions (antibody) heavy: EVMLVESGGGLVKPGGSLKLSCAASGFSFSNSAMSWVRQTPEKRLEGVATISSGDSFTYYPDTVKGRFTISRDNAKNSLYLQMSRLRSEDTAVYYCARQGYGNALDYWGQGTSVTVSS[sequence of human IgG1 constant region omitted] light: DIVMTQSPSSLTVTAGEKVTMTCKSSQSLLNSGNQKNYLTWYQQKPGQPPKLLIYWSSTRESGVPDRFTGSGSGTDFTLTISSVQAEDLAVYYCQNDYYYPLTFGAGTKLELKRTVAAPSVFIFPPSDEQLKSGTASVVCLLNNFYPREAKVQWKVDNALQSGNSQESVTEQDSKDSTYSLSSTLTLSKADYEKHKVYACEVTHQGLSSPVTKSFNRGEC |  | 
2 | 16.70 ×10^6 |  | 6B9.22-hz00: chimeric antibody: 6B9.22 variable regions with human IgG1 and κ constant regions (antibody) heavy: QVQLQQSGAELVKPGASVKMSCKAFGYTFTSYPIEWMKQNHGKSLEWIGNFHPYNDDTKYNEKFKGKAKLTVEKSSSTVYLELSRLTSDDSAVYYCARTYYGNSFAYWGQGTLVTVSS[sequence of human IgG1 constant region omitted] light: DIVMTQSPSSLTVTAGEKVTMSCKSSQSLLNSGNQKNYLTWYQQKPGQPPKLLIYWASSRDSGVPHRFTGSGSGTDFTLTISSVQAEDLAFYYCQNDYFYPFTFGAGTKLELKRTVAAPSVFIFPPSDEQLKSGTASVVCLLNNFYPREAKVQWKVDNALQSGNSQESVTEQDSKDSTYSLSSTLTLSKADYEKHKVYACEVTHQGLSSPVTKSFNRGEC |  | 
3 | 12.40 ×10^6 |  | 16A9.11-hz00: chimeric antibody: 16A9.11 variable regions with human IgG1 and κ constant regions (antibody) heavy: EVMLVESGGGLVKPGGSLKLSCAASGFSFSNSAMSWVRQTPEKRLEGVATISSGDSYTYYPDSVKGRFTISRDTAKNSLYLQMSSLRSEDTAVYYCTRQGYGNAMDYWGQGTSVTVSS[sequence of human IgG1 constant region omitted] light: DIVMTQSPSSLTVTAGEKVTMSCKSSQSLLNSGNQKNYLTWYQQKPGQPPKLLIYWSSTRESGVPDRFTGSGSGTDFTLTISSVQAEDLAVYYCQNDYYYPLTFGAGTKLELKRTVAAPSVFIFPPSDEQLKSGTASVVCLLNNFYPREAKVQWKVDNALQSGNSQESVTEQDSKDSTYSLSSTLTLSKADYEKHKVYACEVTHQGLSSPVTKSFNRGEC |  | 
4 | 11.8 ×10^6 | 11.17 ×10^6 | 1E9.2-hz00: chimeric antibody: 1E9.2 variable regions with human IgG1 (SEQ ID NO: 42) and κ (SEQ ID NO: 43) constant regions (antibody) heavy: EVMLVESGGGLVKPGGSLKLSCAASGFSFSNSAMSWVRQTPEKRLEGVATISSGDSYTYYPDSVKGRFTISRDNAKNSLYLQMSSLRSEDTAVYYCARQGYGNALDYWGQGTSVTVSS[sequence of human IgG1 constant region omitted] light: DIVMTQSPSSLTVTAGEKVTMSCKSSQSLLNSGNQKNYLTWYQQKPGQPPKLLIYWSSTRESGVPDRFTGSGSGTDFTLTISSVQAEDLAVYYCQNDYYYPLTFGAGTKLELKRTVAAPSVFIFPPSDEQLKSGTASVVCLLNNFYPREAKVQWKVDNALQSGNSQESVTEQDSKDSTYSLSSTLTLSKADYEKHKVYACEVTHQGLSSPVTKSFNRGEC | 0.049* μg/mL | 59.83* %
5 | 14.41 ×10^6 |  | 9C8.1-hz00: chimeric antibody: 9C8.1 variable regions with human IgG1 and κ constant regions (antibody) heavy: QVQLQQSGAELVRPGSSVKISCKASGYAFSNYWMNWVKQRPGQGLEWIGQIYPGDGDTNYNGKFKGKATLTTDKSSSTAYMQLSSLTSEDSAVYFCARLYYGNSFAYWGQGTLVTVSS[sequence of human IgG1 constant region omitted] light: DIVMTQSPSSLTVTAGEKVTVSCKSSQSLLNSGNQKNYLTWYQQKPGQPPKLLIYWASTRESGVPDRFTGSGSGTDFTLTISSVQAADLAIYYCQNDYFYPFTFGGGTKLEIKRTVAAPSVFIFPPSDEQLKSGTASVVCLLNNFYPREAKVQWKVDNALQSGNSQESVTEQDSKDSTYSLSSTLTLSKADYEKHKVYACEVTHQGLSSPVTKSFNRGEC |  | 

From patent US12297265B2, “Antibody and use thereof” (SICHUAN KELUN-BIOTECH BIOPHARMACEUTICAL CO., LTD., priority 2018, dated 2025)
